# In the RNAGym collection of RNA variant scans (doi:10.1093/nar/gkz1192):
# Read counts are not given, so values of variants with three or more changes are uncertain.
# B1: CPEB3 Ribozyme (parent)
# chain: UAACAGGGGGCCACAGCAGAAGCGUUCACGUCGCAGCCCCUGUCAGAUUCUGGUGAAUCUGCGAAUUCUGCUGUAUAUCUC
# Variants of: B1
# Experiment: self-cleavage, relative activity (ratio to wild type); higher = more cleavage; in vitro, sequencing
# Outline: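 Libraries of CPEB3 self-cleaving ribozyme mutants came from rounds of error-prone PCR and carried barcodes, which DNA sequencing matched to variants. In vitro transcription used T7 RNA polymerase at 37°C for 5 hours, with a further 15 min in DNase I before EDTA stopped the reaction; the ribozymes cleaved during both steps. The RNA was reverse transcribed with template switching and sequenced on Illumina. Relative activity is the cleaved/total read fraction of a variant divided by that of the unmutated ribozyme, averaged over three batches with at least 5 reads.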
row,Variant,self-cleavage
1,G9C A20G G24U C39U C62U U72A,0.05
2,G9U A21U G24A U43C U74G U80C,0.03
3,G9C A21G U67C,0.18
4,G9U G33A U48C A56G U60A,0.04
5,G10A A15U U48C U60C U78C,0.08
6,G9U G36A U48C A57G,0.1
7,G9U G42A U67C U69A,0.04
8,G9U A18U U25C A75U U80C,0.23
9,G9A U54A U60A U69C,0.31
10,G9U A18G U25C U31C U51A C68G,0.12
11,G9U U54C A64G,0.18
12,G9C A15G U25A U69A A75G,0.05
13,G10A A18G A45G U54C A64G U78C,0.06
14,G9C A18G U26C U67A,0.06
15,G9C U54A A75G U80G,0.18
16,G9U G30A U41A U76C,0.05
17,G9U A18U A28G C39U A47G U80C,0.04
18,G9U A15U A35C,0.13
19,G10A A18G U48C C59A C68U A77C,0.09
20,G9U A35G U43C U80C,0.53
21,G9U A15G C29U A35U A57U U80A,0.12

row,Variant,self-cleavage
1,G9U U41G U48A A56G A65U U78C,0.08
2,G9U A15U U26G U69A,0.13
3,G9U G19A U49C A56G U69C A75G U78A,0.03
4,G9U G16A U43G U49A U51C,0.04
5,G9C A45U U54A A56U,0.05
6,G9C A35G U41C U43C U78C,0.32
7,G9U U49C U54A G61U,0.03
8,G9U U31C A45G U74C,0.26
9,G9A U60C A77U,0.22
10,G9C U43A A45G,0.08
11,G9C G10C A28U U31C U54A,0.15
12,G9C A20U U54C A57U A65U,0.05
13,G9U A21G A28G G30A A35G A64G,0.05
14,G9C A35G A47G U69A U78C U80C,0.07
15,G9U U41C U51A,0.12
16,G9U A28G U51A U67A A75G,0.12
17,G9U A18U A47G U48C U66C A75U C81U,0.04
18,G9U A21G A35G U51A A57G U66C U67C,0.05
19,G9U C32U C37G U51C G52U C62G,0.06
20,G9U A18G G36A U43A,0.18
21,G9U A20G G24U A75U U78C,0.21

row,Variant,self-cleavage
1,G9C G22U U31C A45U U78A,0.06
2,G9A U60C A65G U80C,0.1
3,G10A A15G U31C A65U U72G U74C,0.05
4,G9A U67C U74A U80A,0.03
5,G9U A13G A47U G52C G53A,0.07
6,G10A A13U C23G C32A C38U A64G U80C,0.02
7,G9C U51C G53A U67C,0.05
8,G9U U41C U54A U67A U74C,0.06
9,G10A A18G U43G U51C,0.14
10,G9U A35U U54C,0.16
11,G9U A28G C71A U72A,0.05
12,G9C A20G A56G A64G,0.05
13,G9U U26C C37U U51G,0.15
14,G9U A13U A28U A57G,0.19
15,G9U U25C A28G C34U U54C,0.14
16,G9C A18U U25C U49C U67C U69C U72C,0.02
17,G9U U25A A28G U51C,0.07
18,G10A A18G U25C U41G U72G U78C,0.04
19,G10A A18G U48A A64G,0.18
20,G10A A18G U67A U80A,0.05
21,G9C U54C A64G C71U,0.07

row,Variant,self-cleavage
1,G10A A15G A75G,0.07
2,G9C U26C U54C A56G U67A,0.05
3,G9C U67C A75G,0.05
4,G9C A21U A28G U41A A77U U80C,0.05
5,G10A A13C C32A U51C U54C A56G,0.22
6,G9C U60C U66C U67G,0.19
7,G9U G19U A64U,0.11
8,G9A U58C U60A,0.06
9,G9U A21G C38U U54G,0.06
10,G10A A15G U41C,0.13
11,G10A A15U A64U U66C,0.05
12,G9C U54A A64G A65C,0.16
13,G10A A18G C40U U43G,0.06
14,G9U A18G A65U,0.19
15,G9U A28G G36C,0.13
16,G9C U26A C27U U54C A65U,0.04
17,G9U G24A U43C,0.08
18,G9A U72A U80C,0.13
19,G9U G10A C12U A35G A45G C50A U58A,0.16
20,G9A U54A U69A,0.2
